Experimental findings from PMC6919601, “Identification of Plasmodium dipeptidyl aminopeptidase allosteric inhibitors by high throughput screening” (PLoS ONE, 2019) are described below.

The structures appear in SMILES notation. About 230 (0.21%) of roughly 110,000 compounds showed an effect of 50% or more. This is one part of the list.
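Further: 30 min substrate incubation versus DMSO and 10 µM JCP410 controls.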

The target in this experiment is DPAP1 (Plasmodium falciparum, UniProt Q8IIJ9). Kind of experiment: primary screen, percent inhibition; read by cleavage of a fluorogenic dipeptide substrate; higher = more effect of the substance. The arrangement: species or system P. falciparum D10 trophozoite lysates; single well.
DPAP1, sequence (Q8IIJ9 whole entry, looked up): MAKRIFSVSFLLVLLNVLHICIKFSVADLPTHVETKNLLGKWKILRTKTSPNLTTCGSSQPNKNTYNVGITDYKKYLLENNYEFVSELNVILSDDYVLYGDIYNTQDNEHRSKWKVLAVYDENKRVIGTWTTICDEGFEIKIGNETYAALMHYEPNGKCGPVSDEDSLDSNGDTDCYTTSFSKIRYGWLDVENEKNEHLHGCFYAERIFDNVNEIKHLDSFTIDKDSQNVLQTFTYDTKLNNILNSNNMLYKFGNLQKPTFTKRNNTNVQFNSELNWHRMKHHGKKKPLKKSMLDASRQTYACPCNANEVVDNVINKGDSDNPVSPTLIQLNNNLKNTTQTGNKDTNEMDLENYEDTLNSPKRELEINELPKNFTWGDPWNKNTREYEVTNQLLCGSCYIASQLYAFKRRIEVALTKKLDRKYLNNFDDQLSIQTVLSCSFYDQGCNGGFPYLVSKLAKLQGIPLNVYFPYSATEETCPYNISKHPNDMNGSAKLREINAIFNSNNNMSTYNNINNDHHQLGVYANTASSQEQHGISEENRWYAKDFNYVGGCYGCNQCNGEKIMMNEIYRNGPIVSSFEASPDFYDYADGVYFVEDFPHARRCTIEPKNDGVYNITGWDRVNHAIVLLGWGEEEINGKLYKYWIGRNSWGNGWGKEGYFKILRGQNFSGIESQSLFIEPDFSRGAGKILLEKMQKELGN
In the case of `CCN1CCN(Cc2ccoc2)CC1`, the “% Inhibition @ 10 uM” value worked out at 4.57%. To `CC(C)CN(CCNC(=O)CN1N=C(c2ccccc2)CCC1=O)CC(C)C` belongs 1.97%; to `CCc1nnc(NC(=O)CSc2ccc3nnc(-c4ccncc4)n3n2)s1`, 4.84%; to `Nc1nc(CNS(=O)(=O)c2ccccc2)nn1S(=O)(=O)c1ccccc1`, -0.447%. To `COc1ccccc1NC(=O)/C=C/c1ccc(C(C)C)cc1` belongs 6.25%; to `Cc1cc(C(=O)NC2CCCCC2)c2c(C)nn(-c3cccc(F)c3)c2n1`, -1.52%; to `O=C(Cn1ccc2cc(S(=O)(=O)N3CCCC3)ccc21)NC1CCCc2ccccc21` (stereo not shown), 2.79%.

In the case of `Cc1ccc(C(=O)C2=C(O)C(=O)N(c3ccccn3)C2c2ccc(F)cc2)cc1` (stereo not shown), the “% Inhibition @ 10 uM” value is recorded as -4.18%. The same measure for `COC(=O)C1=C(C)N=C(C)/C(=C(/O)OC)C1c1ccc(C)o1` (stereo not shown): -3.74%; for `CC(C)Cc1ccc(-c2csc(N)n2)cc1`: 3.44%; for `Cc1cc(C(=O)O)[nH]n1`: 4.61%. As to `CCCOc1ccc(C(CC(=O)O)NC(=O)c2cc(Cl)ccc2Cl)cc1` (stereo not shown), the “% Inhibition @ 10 uM” value was determined as 4.32%. The same measure for `Cc1oc2cc3oc(=O)c(CCC(=O)N4CCCC4)c(C)c3cc2c1C`: 4.13%. Take `O=C(C1=C(O)C(=O)N(CCc2c[nH]c3ccccc23)C1c1ccccn1)c1ccccc1` (stereo not shown): the “% Inhibition @ 10 uM” value is given as -1.17%. To `Cc1ccc(S(=O)(=O)N(CC(=O)N2CCOCC2)c2cccc(Cl)c2C)cc1` belongs 0.235%; to `CC(C)Cn1cc(C(=O)NC(C)CCc2ccccc2)c2c3ccccc3n(C)c2c1=O` (stereo not shown), 3.55%; to `CCO/C(O)=C(\C#N)C1=NCCC1`, 2.17%. On to `COc1cc(-c2nc(S)c3c(n2)Oc2ccccc2C3)cc(OC)c1OC`, for which the “% Inhibition @ 10 uM” value was 0.54%. To `CCOCCCNC(=O)Cn1sc2nc(C)cc(C)c2c1=O` belongs -1.21%; to `COc1ccc(Br)c(C2C(C#N)=C(N)Oc3[nH]c(C)nc32)c1` (stereo not shown), 3.65%; to `CCOc1ccc(S(=O)(=O)N(C)Cc2cc3ccccc3o2)cc1`, 9.38%.

`COc1cc(C2c3c(-c4ccccc4O)n[nH]c3C(=O)N2CCCO)ccc1OCc1ccccc1` (stereo not shown): the “% Inhibition @ 10 uM” value was found to be 3.62%. The same measure for `O=C(Cn1ncc2c3ccccc3nc-2c1O)NCc1ccccn1`: -1.96%; for `COc1ccc(S(=O)(=O)N2CCC(NC(=O)NCCCO)CC2)cc1`: -0.946%; for `CC(C)Cn1cc(NC(=O)NCc2ccco2)c2ccccc2c1=O`: -4.4%. The same measure for `Cc1nnc(NC(=O)c2c(O)nc3ccccc3c2O)s1`: -2.05%. To `Cc1cccc2sc(NC(=O)C3CCN(S(=O)(=O)c4c[nH]cn4)CC3)nc12` belongs -0.499%. For the molecule `Cc1cccc(NC(=O)CN2C(=O)N/C(=C/c3ccccc3)C2=O)c1`, the “% Inhibition @ 10 uM” value is given as -16%.
